{"source": "the supplement of paper PMC4166925", "note": "± gives the standard deviation of the averaged measurements. The full ranking holds about 33,000 sequences; the median of “E-score (dimensionless, -0.5 to 0.5)” is about -0.049, and the highest 2% start at about 0.37. Some of the results follow.", "data": [{"tested_on": "T1, PmTbr T-box DNA-binding domain (GST fusion)", "T1 sequence": "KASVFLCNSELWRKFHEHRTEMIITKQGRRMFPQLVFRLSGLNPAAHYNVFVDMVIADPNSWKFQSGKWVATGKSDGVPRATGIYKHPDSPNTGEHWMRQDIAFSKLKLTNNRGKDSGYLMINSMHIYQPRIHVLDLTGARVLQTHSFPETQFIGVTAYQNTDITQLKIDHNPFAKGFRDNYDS", "assay": "PBM E-score of 8-mer (E-score (dimensionless, -0.5 to 0.5)); Tbr is Tbrain of the sea star Patiria miniata (Pm) or the sea urchin Strongylocentrotus purpuratus (Sp); higher = stronger binding preference; most listed sequences are background and not binding sites", "conditions": "the construct has about 5 more residues each side", "summary_of_the_method": "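GST-fused Tbr T-box DNA-binding domains (the whole T-box plus about five flanking residues) were expressed in BL21 E. coli at 20 °C and purified by glutathione affinity chromatography. Universal Agilent oligonucleotide arrays were made double-stranded by primer extension, incubated with 200 nM protein in PBS (pH 7.5), then scanned and quantified. Every ungapped 8-mer was scored from probe intensities. The Universal PBM Analysis Suite gave each word an enrichment E-score, averaged over duplicate arrays.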", "values": [{"sequence": "AAAGATTA", "PBM E-score of 8-mer": "-0.225 ± 0.014"}, {"sequence": "CGCTCTTC", "PBM E-score of 8-mer": "-0.146 ± 0.054"}, {"sequence": "GGACAGAA", "PBM E-score of 8-mer": "-0.212 ± 0.019"}, {"sequence": "CCTAACAG", "PBM E-score of 8-mer": "0.128 ± 0.033"}, {"sequence": "TCGCCTAA", "PBM E-score of 8-mer": "0.0836 ± 0.0081"}, {"sequence": "CATGGCTA", "PBM E-score of 8-mer": "-0.226 ± 0.015"}, {"sequence": "GCTTATTA", "PBM E-score of 8-mer": "-0.0887 ± 0.019"}, {"sequence": "ACGTTATG", "PBM E-score of 8-mer": "0.0687 ± 0.0031"}, {"sequence": "AGCTCATC", "PBM E-score of 8-mer": "-0.256 ± 0.028"}, {"sequence": "AACTCGAA", "PBM E-score of 8-mer": "-0.148 ± 0.026"}, {"sequence": "GACGGGCA", "PBM E-score of 8-mer": "-0.257 ± 0.03"}, {"sequence": "CGCAGTAC", "PBM E-score of 8-mer": "0.0923 ± 0.025"}, {"sequence": "CTTGCTGC", "PBM E-score of 8-mer": "0.025 ± 0.004"}, {"sequence": "CGTTCAAC", "PBM E-score of 8-mer": "-0.0931 ± 0.075"}, {"sequence": "GATGCAAC", "PBM E-score of 8-mer": "-0.119 ± 0.089"}, {"sequence": "TTAAGGAA", "PBM E-score of 8-mer": "-0.0478 ± 0.056"}, {"sequence": "CTAGATCA", "PBM E-score of 8-mer": "-0.25 ± 0.079"}, {"sequence": "ACCGTGAG", "PBM E-score of 8-mer": "0.174 ± 0.0084"}, {"sequence": "AGGAAAGG", "PBM E-score of 8-mer": "-0.193 ± 0.007"}, {"sequence": "ACACGAAG", "PBM E-score of 8-mer": "-0.0155 ± 0.044"}, {"sequence": "AAATGTTC", "PBM E-score of 8-mer": "-0.0691 ± 0.07"}, {"sequence": "CTTTGAGA", "PBM E-score of 8-mer": "-0.059 ± 0.0076"}, {"sequence": "ATTCCGCA", "PBM E-score of 8-mer": "0.017 ± 0.018"}, {"sequence": "AACCCATG", "PBM E-score of 8-mer": "-0.124 ± 0.012"}, {"sequence": "CAACATTC", "PBM E-score of 8-mer": "0.0444 ± 0.017"}, {"sequence": "TGCCACAA", "PBM E-score of 8-mer": "0.137 ± 0.028"}, {"sequence": "CGTTACGC", "PBM E-score of 8-mer": "-0.0894 ± 0.037"}, {"sequence": "CCCCCTTC", "PBM E-score of 8-mer": "-0.225 ± 0.019"}, {"sequence": "CTAAAAGC", "PBM E-score of 8-mer": "-0.0348 ± 0.085"}, {"sequence": "AGCGCTTC", "PBM E-score of 8-mer": "0.0651 ± 0.013"}, {"sequence": "CAAAATGG", "PBM E-score of 8-mer": "-0.00466 ± 0.074"}, {"sequence": "CCCGAACG", "PBM E-score of 8-mer": "-0.194 ± 0.029"}, {"sequence": "TAACGGAA", "PBM E-score of 8-mer": "-0.0214 ± 0.025"}, {"sequence": "CACTTGGG", "PBM E-score of 8-mer": "0.296 ± 0.047"}, {"sequence": "ACCCGGGT", "PBM E-score of 8-mer": "-0.106 ± 0.075"}, {"sequence": "ACGGGACC", "PBM E-score of 8-mer": "-0.214 ± 0.053"}, {"sequence": "CTCGAGGA", "PBM E-score of 8-mer": "0.136 ± 0.044"}, {"sequence": "AAGAGCAT", "PBM E-score of 8-mer": "-0.148 ± 0.12"}, {"sequence": "ACATGGTG", "PBM E-score of 8-mer": "0.243 ± 0.0055"}, {"sequence": "AGTATCAG", "PBM E-score of 8-mer": "-0.105 ± 0.034"}, {"sequence": "ATGGCAAG", "PBM E-score of 8-mer": "0.143 ± 0.0085"}, {"sequence": "CTGATCCC", "PBM E-score of 8-mer": "-0.0199 ± 0.054"}, {"sequence": "CTACATAG", "PBM E-score of 8-mer": "0.0333 ± 0.043"}, {"sequence": "AAGCTCAC", "PBM E-score of 8-mer": "0.131 ± 0.011"}, {"sequence": "AGATGGCT", "PBM E-score of 8-mer": "-0.0173 ± 0.0068"}, {"sequence": "CCCCTCGG", "PBM E-score of 8-mer": "-0.194 ± 0.016"}, {"sequence": "GCTTGCGA", "PBM E-score of 8-mer": "0.105 ± 0.024"}, {"sequence": "ATTCATTG", "PBM E-score of 8-mer": "-0.157 ± 0.03"}, {"sequence": "ACCACGAC", "PBM E-score of 8-mer": "0.0482 ± 0.0056"}, {"sequence": "GCCAATAC", "PBM E-score of 8-mer": "0.0256 ± 0.028"}, {"sequence": "ATAAGTGA", "PBM E-score of 8-mer": "0.214 ± 0.011"}, {"sequence": "AGCTGCCC", "PBM E-score of 8-mer": "-0.168 ± 0.015"}, {"sequence": "AGCGTAGA", "PBM E-score of 8-mer": "-0.103 ± 0.091"}, {"sequence": "AATCAGGA", "PBM E-score of 8-mer": "-0.264 ± 0.028"}, {"sequence": "ACAACGGA", "PBM E-score of 8-mer": "0.0177 ± 0.034"}, {"sequence": "ATCACATG", "PBM E-score of 8-mer": "0.286 ± 0.019"}, {"sequence": "GACCCGCC", "PBM E-score of 8-mer": "-0.0321 ± 0.059"}, {"sequence": "AATAGGTC", "PBM E-score of 8-mer": "-0.258 ± 0.012"}, {"sequence": "ACCGATTA", "PBM E-score of 8-mer": "-0.0842 ± 0.0046"}, {"sequence": "AATAGCGA", "PBM E-score of 8-mer": "0.285 ± 0.042"}, {"sequence": "AAACCACT", "PBM E-score of 8-mer": "-0.263 ± 0.011"}, {"sequence": "GCCCGGAC", "PBM E-score of 8-mer": "-0.187 ± 0.054"}, {"sequence": "CTGATTGA", "PBM E-score of 8-mer": "-0.151 ± 0.033"}, {"sequence": "CCTCCGAA", "PBM E-score of 8-mer": "-0.0356 ± 0.0086"}, {"sequence": "GAACAGGC", "PBM E-score of 8-mer": "-0.135 ± 0.075"}, {"sequence": "AATACCTG", "PBM E-score of 8-mer": "0.0448 ± 0.035"}, {"sequence": "ACTCGCTA", "PBM E-score of 8-mer": "0.282 ± 0.022"}, {"sequence": "GCACTTCC", "PBM E-score of 8-mer": "0.365 ± 0.021"}, {"sequence": "AATGAGGC", "PBM E-score of 8-mer": "-0.112 ± 0.082"}, {"sequence": "GCAATCAC", "PBM E-score of 8-mer": "0.0766 ± 0.03"}, {"sequence": "ATTCCCAC", "PBM E-score of 8-mer": "0.199 ± 0.014"}, {"sequence": "AAAGGCGG", "PBM E-score of 8-mer": "-0.0183 ± 0.038"}, {"sequence": "TAGGCAAA", "PBM E-score of 8-mer": "-0.0377 ± 0.012"}, {"sequence": "ACATTTAA", "PBM E-score of 8-mer": "-0.00963 ± 0.13"}, {"sequence": "GCCCGCAC", "PBM E-score of 8-mer": "0.0136 ± 0.025"}, {"sequence": "ACGATATG", "PBM E-score of 8-mer": "-0.0679 ± 0.044"}, {"sequence": "ATGTACGC", "PBM E-score of 8-mer": "-0.112 ± 0.0071"}, {"sequence": "CTGACTCC", "PBM E-score of 8-mer": "-0.143 ± 0.047"}, {"sequence": "GCACGGTA", "PBM E-score of 8-mer": "-0.0373 ± 0.034"}, {"sequence": "CTCTTAAC", "PBM E-score of 8-mer": "-0.115 ± 0.062"}, {"sequence": "ACGAGAAC", "PBM E-score of 8-mer": "0.0117 ± 0.058"}, {"sequence": "ACCTGATC", "PBM E-score of 8-mer": "0.0528 ± 0.11"}, {"sequence": "TATCAAGA", "PBM E-score of 8-mer": "-0.184 ± 0.07"}, {"sequence": "AACGCTTG", "PBM E-score of 8-mer": "0.134 ± 0.018"}, {"sequence": "TGTATAAA", "PBM E-score of 8-mer": "-0.0627 ± 0.098"}, {"sequence": "AAACCCTC", "PBM E-score of 8-mer": "-0.06053 ± 0.00052"}]}]}
